Laboratory results published in US20250043004A1 (Janssen / Centocor, published 2025).

How the values were obtained:
CD28 [1] = molecular target: T1, CD28 (human, UniProt P10747 19-220); assay: flow cytometry, human pan T cells
T1 construct: whole, on cells; On human pan T cells and on H929 myeloma cells; the assay field says which; also called Cluster of Differentiation 28

BCMA = molecular target: T2, BCMA (human, UniProt Q02223 1-184); assay: flow cytometry, H929 cells (BCMA+, CD28+); whole-cell EC50, antibody has BCMA and CD28 arms
T2 construct: whole, on cells; On NCI-H929 myeloma cells, which also carry CD28; also called B-cell maturation antigen; TNFRSF17
T2 sequence (looked up): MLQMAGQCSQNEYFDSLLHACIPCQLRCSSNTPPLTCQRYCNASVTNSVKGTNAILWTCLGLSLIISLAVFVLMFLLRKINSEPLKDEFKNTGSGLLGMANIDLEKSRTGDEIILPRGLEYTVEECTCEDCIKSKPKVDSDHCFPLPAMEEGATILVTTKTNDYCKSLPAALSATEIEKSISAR

CD28 [2] = molecular target: T1, CD28; assay: as above

Measured: EC50

B1: VB28B4 (other)
heavy 1: QVQLQQWGAGLLKPSETLSLTCAVYGGSFSGYYWNWIRQPPGKGLQWIGEINHSGTTNYNPSLKSRVTISVDTSKNQFSLKLSSLTAADTAVYYCARGEAVALYWGQGTLVTVSSASTKGPSVFPLAPSSKSTSGGTAALGCLVKDYFPEPVTVSWNSGALTSGVHTFPAVLQSSGLYSLSSVVTVPSSSLGTQTYICNVNHKPSNTKVDKKVEPKSCDKTHTCPPCPAPEAAGGPSVFLFPPKPKDTLMISRTPEVTCVVVSVSHEDPEVKFNWYVDGVEVHNAKTKPREEQYNSTYRVVSVLTVLHQDWLNGKEYKCKVSNKALPAPIEKTISKAKGQPREPQVYTLPPSREEMTKNQVSLWCLVKGFYPSDIAVEWESNGQPENNYKTTPPVLDSDGSFFLYSKLTVDKSRWQQGNVFSCSVMHEALHNHYTQKSLSLSPGGGSEGKSSGSGSESKSTGGSDIQMTQSPSSLSASVGDRVTITCRSSQSLVHSSGNTYLHWYQQKPGKAPKFLIYKVSNRFSGVPSRFSGSGSGTDFTLTISSLQPEDFATYYCSQSTHVPFTFGQGTKLEIKGGSEGKSSGSGSESKSTGGSQVQLQESGPGLVKPSETLSLTCTVSGYSITSGYFWNWIRQPPGKGLEWIGYISYDGSNNYNPSLKSRVTISRDTSKNQFSLKLSSVTAADTAVYYCASPSPGTGYAVDYWGQGTLVTVSS
light 1: EIVMTQSPATLSVSPGERATLSCRASQSVNSNLAWYQQKPGQAPRLLIYGASARATGIPARFSGSGSGTEFTLTISSLQSEDFAVYYCQQYYNWPLTFGGGTKVEIKRTVAAPSVFIFPPSDEQLKSGTASVVCLLNNFYPREAKVQWKVDNALQSGNSQESVTEQDSKDSTYSLSSTLTLSKADYEKHKVYACEVTHQGLSSPVTKSFNRGEC
heavy 2: QVQLQQWGAGLLKPSETLSLTCAVYGGSFSGYYWNWIRQPPGKGLQWIGEINHSGTTNYNPSLKSRVTISVDTSKNQFSLKLSSLTAADTAVYYCARGEAVALYWGQGTLVTVSSASTKGPSVFPLAPSSKSTSGGTAALGCLVKDYFPEPVTVSWNSGALTSGVHTFPAVLQSSGLYSLSSVVTVPSSSLGTQTYICNVNHKPSNTKVDKKVEPKSCDKTHTCPPCPAPEAAGGPSVFLFPPKPKDTLMISRTPEVTCVVVSVSHEDPEVKFNWYVDGVEVHNAKTKPREEQYNSTYRVVSVLTVLHQDWLNGKEYKCKVSNKALPAPIEKTISKAKGQPREPQVYTLPPSREEMTKNQVSLSCAVKGFYPSDIAVEWESNGQPENNYKTTPPVLDSDGSFFLVSKLTVDKSRWQQGNVFSCSVMHEALHNRFTQKSLSLSPGGGSEGKSSGSGSESKSTGGSEIVLTQSPGTLSLSPGERATLSCRASQSISSSFLTWYQQKPGQAPRLLIYGASSRATGIPDRFSGGGSGTDFTLTISRLEPEDFAVYYCQHYGSSPMYTFGQGTKLEIKGGSEGKSSGSGSESKSTGGS[about 100 residues not spelt out]DEGYSSGHYYGMDVWGQGTTVTVSS
light 2: B1 light 1
notes: only variable domains are tied; also called Vβ28B4
0.06 µg/mL: all assays above
